# Assay results reported in article PMC12136788.
# The other results are listed elsewhere or left out.
# T1: UNK ZnF1-6 (called full-length) (human, UniProt Q9C0B0 30-357)
# T1 sequence: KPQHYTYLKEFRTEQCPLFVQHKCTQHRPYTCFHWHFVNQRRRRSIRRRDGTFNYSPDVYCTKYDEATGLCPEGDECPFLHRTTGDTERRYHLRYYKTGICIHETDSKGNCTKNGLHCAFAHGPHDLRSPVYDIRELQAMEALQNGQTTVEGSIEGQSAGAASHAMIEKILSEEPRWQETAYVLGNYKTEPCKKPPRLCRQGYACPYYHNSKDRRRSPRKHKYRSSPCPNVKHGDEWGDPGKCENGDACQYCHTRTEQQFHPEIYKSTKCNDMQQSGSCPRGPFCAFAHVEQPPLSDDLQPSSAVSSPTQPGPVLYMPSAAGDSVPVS
# B1: ENSG00000198589:be:win_6301|CDS|ENSG00000198589|bound_else_gene|NA|bound_elsewhere_windowed (ssRNA)
# RNA: GGGAGUUCUACAGUCCGACGAUCGAUCCUAACUUCAAAAAAAUCGACCCCAAGAUCUUGGCAUAUACAGAAGGGCUGCAUGGAAAAUGGCUGUUCACAGAGAUACGAUCAAUCUUUUCUCGUCGUUAUCUUUUGCAAAAUACACAACAGAGGAUUGAGCAUCA
# B2: chr11:118657315:118658441:-|three_prime_utr|ENSG00000118094|control|control|control (ssRNA)
# RNA: GGGAGUUCUACAGUCCGACGAUCCCUCCCAGCCUGUCCUCAGAGCGAAGUGGAGGGCAGGGUCACGACCUGGAGGUCAUGGGUAGGGGCCUAGCUCCCUCCUGGAACCUUGAAUAGGGUGGAAAUCCUGCUCUGGAGGGAAGACAACAGAGGAUUGAGCAUCA
# B3: chr8:97725557:97725573:+|3pUTR|ENSG00000147649|msi1_unk|FALSE|overlapping (ssRNA)
# RNA: GGGAGUUCUACAGUCCGACGAUCGUUGACUUUAAAAAUGAAAUCAUUCACAAACUUUUGGUAUAUGAUGGAGAAUGAAAAACUAGAGUCAGACAGCUUUAAUUGACAUUGUCAACACCUCCAGUUAUCAGGAAUACAUUUUUUCAACAGAGGAUUGAGCAUCA
# B4: chr15:43456694:43456846:-|CDS|ENSG00000067369|unk|total|mutant (ssRNA)
# RNA: GGGAGUUCUACAGUCCGACGAUCAGACACCAGGGAUGACAUCCGUAUUUCCGCCACUGGUUGCAAGGGCAGAGAAGAAACGGCCGCAGAAGAUGUUUGUAUUGAUCUCACUUGUGAUUCGGGGAGUCAGGCAGUUCCGUCACCCAACAGAGGAUUGAGCAUCA
# B5: chr1:45741042:45741143:-|CDS|ENSG00000197429|msi1|total|mutant (ssRNA)
# RNA: GGGAGUUCUACAGUCCGACGAUCUGCCAUGAUCUCUUGGAAUUCUCAGAAAACUACAUUCAUGUCCAUUUCUUGGAGGUUCACCGUGGAGAAGAGUUCCUGGCACUUACGAAAGAUCAGCUGAUCAAAAUUUUGCGAAGUGAACAACAGAGGAUUGAGCAUCA
# B6: chr9:37862824:37862925:+|3pUTR|ENSG00000122741|unk|total|mutant (ssRNA)
# RNA: GGGAGUUCUACAGUCCGACGAUCUAUGCACCCGCCUUGCCCUCUCCGGUUGCAUUCUCUUCCGGCCACUGGUUCUCAAACAUCCGGGUGCACUGUAACCAUUACAGAGCUUGUGAAAAGUGCAGAAACCUGAGCCUCACCUUACAACAGAGGAUUGAGCAUCA
# B7: ENSG00000106080:stop:overlap|stop_codon|ENSG00000106080|stop_codon|NA|stop_codon (ssRNA)
# RNA: GGGAGUUCUACAGUCCGACGAUCAUGAAGACAAAGAUGGGUUUAUAUCUGCCAGAGAAUUUACAUAUAAACACGAUGAGUUAUAGAGAUACAUCUACCCUUUUAAUAUAGCACUCAUCUUUCAAGAGAGGGCAGUCAUCUUUACAACAGAGGAUUGAGCAUCA
# B8: chr20:3868059:3868160:+|3pUTR|ENSG00000088888|unk|total|mutant (ssRNA)
# RNA: GGGAGUUCUACAGUCCGACGAUCUCAGCCUCCAGGGAUCUACACCCUGCCUUGGCUGCUACAGCUUUUUCACUCCACUGCCCCCGGGGAGUUCAGCAACCUAAUGAUCUCUAUCUCUGAACAUCUCUUCAUCCCAUGCUCCAACAACAGAGGAUUGAGCAUCA
# B9: chr4:1716041:1716142:-|3pUTR|ENSG00000168936|msi1|total|mutant (ssRNA)
# RNA: GGGAGUUCUACAGUCCGACGAUCAGGCUUCCCCGAGCGCUCAGCAGGUGAAGGCAGCAGGGGCCAUGGCCGGGAGCCAGGCCCCGCUUUGAACUGAGUUUCAAGGGCUGCCAAAGAGGGGCAGUGGGUUGGGGUUGUUUUUACCAACAGAGGAUUGAGCAUCA
# B10: chr11:20048915:20049016:+|CDS|ENSG00000166833|unk|FALSE|bound_elsewhere (ssRNA)
# RNA: GGGAGUUCUACAGUCCGACGAUCGAGCAGUGGGAGCAGCAGUCCUCUCUACAGCAAGAAUGUGGACCUCAACCAGUCUCCGCUAGCCUCCAGCCCCAGCUCAGCCCACUCGGCCCCUUCCAACAGCCUCACCUGGGGCACCAACAACAGAGGAUUGAGCAUCA
# B11: ENSG00000214517:stop:overlap|stop_codon|ENSG00000214517|stop_codon|NA|stop_codon (ssRNA)
# RNA: GGGAGUUCUACAGUCCGACGAUCUGAUCCGGCACAGGUUUGCAGAACCCAUCGGUGGAUUCCAGUGUGUGUUUCCUGGCUGUUAGUGACCUGCUGUCCACCCCUCCUCAACAUCGAGCUCUGUUGUAAAUACGUCGCACCAGACAACAGAGGAUUGAGCAUCA
# B12: chr12:49796586:49796721:-|CDS|ENSG00000167566|msi1|total|mutant (ssRNA)
# RNA: GGGAGUUCUACAGUCCGACGAUCGAGGCCCACAGGCCAGGCUUCGGUGCUACCUCAGAGGGCCAGGGGCCCCUCCCCUUCCUCCGCAUGUUCAUGGGUGCUGGGGAUGCCCCACUGGGCUCUCGGCCUGGCCACCCCCAUUCCCAACAGAGGAUUGAGCAUCA
# B13: chr15:22866942:22867043:+|3pUTR|ENSG00000140157|msi1|FALSE|unique (ssRNA)
# RNA: GGGAGUUCUACAGUCCGACGAUCUAAAGAUUUCACUAAUUUGGACCAAGAAAUUACUUUUCUUGUAUUUAAACAAACAAUGGUAGCUCACUAAAAUGACCUCAGCACAUGACGAUUUCUAUUAACAUUUUAUUGUUGUAGAAGCAACAGAGGAUUGAGCAUCA
# B14: chr1:214663888:214664008:+|3pUTR|ENSG00000117724|msi1|total|mutant (ssRNA)
# RNA: GGGAGUUCUACAGUCCGACGAUCAGGAGAAAACAAUUCCUCCGAAGUCUUAAAUAUAUUGUACUCUUCCGAUCUCCCAUGUGCCGGUAUUGAAAAAGUUUGGAAGCACUGAUCACCUGUCCGCAUUGCCAUUCCUCUACUGCACAACAGAGGAUUGAGCAUCA
# Target: T1, UNK ZnF1-6 (called full-length)
# Assay: nsRBNS (natural sequence RNA bind-n-seq); RBNS binding buffer (assumed for nsRBNS): 25 mM Tris pH 7.5, 150 mM KCl, 3 mM MgCl2, 0.01% Triton X-100, 500 ug/ml BSA, 20 U/ml SUPERase-In, 4 C; UNK is unkempt and MSI1 is Musashi-1; names of the RNAs are library labels; protein concentration not given here; high values mean tight binding
row,Binder,binding signal
1,B1,0.311 enrichment R
2,B2,0.564 enrichment R
3,B3,0.539 enrichment R
4,B4,0.732 enrichment R
5,B5,0.281 enrichment R
6,B6,0.527 enrichment R
7,B7,1.48 enrichment R
8,B8,0.715 enrichment R
9,B9,0.696 enrichment R
10,B10,0.892 enrichment R
11,B11,0.464 enrichment R
12,B12,0.649 enrichment R
13,B13,0.431 enrichment R
14,B14,0.417 enrichment R
